Self-cleavage data for 167 variants are collected here from the RNAGym collection of RNA variant scans (doi:10.7554/elife.90254).

The source gives no read counts; variants with many changes may rest on few reads.

B1: OR4K15 (parent)
chain: GUUAACGGUCAUAGGCCAUGGAAACUAGGAGCACCAUUUCGCUGCCAGUGAAGAAAUGAACAAAGAAAAUCUGGGCCAGGCAGGCAUCAAAAGAAAUAGUCUUGCGCUCAACCAGAAAGUCUGUAAUCAUUUUAAGGGUA

The variants in the data set derive from B1. The experiment in a line: self-cleavage, relative activity (ratio to wild type); higher = more cleavage; in vitro, sequencing; the parent is a self-cleaving ribozyme.
For U37A U39C U43A U72C U124C, the self-cleavage was 0.07.

On to U37C U57C A69G, for which the self-cleavage is 1.02.

A36U A69U U102C U139C: the self-cleavage is 1.24.

Take A36G A95G U103C U120C: the self-cleavage worked out at 0.3.

For U37C U108C U122C, the self-cleavage was determined as 0.01.

Consider A36G U49C G79A, for which the self-cleavage came to 0.1.

On to U38A A52G C109U U120C, for which the self-cleavage was found to be 0.16.

Take U37C C40A A92G: the self-cleavage is 1.02.

Regarding U37C A54G A59C, the self-cleavage came to 0.95.

In the case of U37C U131C U139C, the self-cleavage is 1.66.

A36G U49C A52C: the self-cleavage was found to be 1.67.

U37C A51G A140G: the self-cleavage was 1.61.

U38A A54U A56G U72C: the self-cleavage was determined as 0.3.

As for U37C A96G A129G, the self-cleavage came out at 1.24.

Turning to U37A U43C A54G A56G U87C A89G, the self-cleavage is 0.77.

With A36G A118G U132A, the self-cleavage worked out at 0.36.

Regarding U37C A47G A55U A94G, the self-cleavage stood at 0.77.

As for A36U A51G A91G A116U, the self-cleavage worked out at 0.

As for A36G A55G A59G U97C U131C, the self-cleavage was determined as 0.49.

Turning to A36U U132C U139C, the self-cleavage worked out at 1.77.

Take U37C A47G A110U: the self-cleavage was 1.69.

On to U37C A116G A117G, for which the self-cleavage is 0.79.

Consider U37C C105U G115A C128G, for which the self-cleavage turned out to be 0.

Take C34U G115A A135G: the self-cleavage came out at 0.16.

C34U A56U A118G: the self-cleavage was determined as 1.12.

As to U37C A78G A95G A118U, the self-cleavage came out at 0.03.

In the case of A36G A47G A82G A111G A117G, the self-cleavage was 0.01.

For the variant C34U A95G A118G U132C G136U, the self-cleavage came to 1.05.

Take U37C U39C G119C: the self-cleavage was 1.32.

As for U37C A78U A95U, the self-cleavage is 0.33.

For the variant A36G U39C A51G A67G U122A, the self-cleavage was 0.71.

Regarding A36G U49C G106A, the self-cleavage came to 0.01.

With U37C U43C A55G, the self-cleavage was 1.4.

Consider U37C G53U U132C, for which the self-cleavage was found to be 1.15.

Take U37C A67G U103C A118G U127A U139C: the self-cleavage is 0.88.

Take U37C A59G A62G: the self-cleavage came out at 0.8.

Turning to U37C A51G A60G, the self-cleavage amounted to 0.28.

Take U38A A51U A78G U108C: the self-cleavage was determined as 0.01.

As for U37C A54U C76A U100C A116G U127C, the self-cleavage was determined as 0.

Take A36C U72A A118G: the self-cleavage is 0.11.

Regarding A36G G58A U87C A96G A118G, the self-cleavage stood at 1.3.

With A36G A129G U132C, the self-cleavage was 2.03.

Turning to C35A A55U A135G, the self-cleavage amounted to 1.22.

With U37C A90G U103C C113U, the self-cleavage amounted to 0.02.

As to C35U A54G U127C, the self-cleavage amounted to 1.23.

Take C35U A52G G79A: the self-cleavage stood at 0.21.

For A36G G75U A78U U102C, the self-cleavage came out at 0.1.

As for U37C A86G A91G A118G, the self-cleavage was 0.31.

Take U37C U39C U70C: the self-cleavage is 1.31.

For U37C A51U U57G A116G, the self-cleavage is 0.36.

For A36G U72C A90G A114U A117G, the self-cleavage is 0.04.

Turning to A36G U38C U39C A92G U100A, the self-cleavage was 0.45.

Take C35U A47U A55G U127C U131C: the self-cleavage worked out at 0.35.

Regarding C35U A47G U131C, the self-cleavage came to 0.58.

On to A33U U70C A98G A135U, for which the self-cleavage turned out to be 0.19.

Regarding A36U A51U A52G A126G, the self-cleavage is 0.76.

With A33U U39C A64C G79U, the self-cleavage worked out at 0.19.

Consider A36C A69U A86G U100C U102C, for which the self-cleavage was 2.52.

Turning to A36G A55U A60G U100C U108C, the self-cleavage is 0.04.

Consider C34A A66U C105A, for which the self-cleavage came to 0.01.

Consider A36G U43A G106A, for which the self-cleavage was determined as 0.02.

Consider U37C A54G A96G, for which the self-cleavage stood at 1.72.

Consider U37C A54G U87C A96C, for which the self-cleavage amounted to 0.93.

On to U37C A62G A63G U87C A129G U130G, for which the self-cleavage stood at 0.41.

Turning to U37C A47G A111G A135G, the self-cleavage was found to be 0.01.

Regarding A36U A55G C77U, the self-cleavage was found to be 0.77.

For the variant U37C A78G C101G, the self-cleavage was 0.01.

With U37C U43C A62U A92G, the self-cleavage was 1.09.

In the case of U37C A59G U133A, the self-cleavage stood at 1.41.

Turning to U37C A68G U87C, the self-cleavage stood at 1.18.

Turning to U37C A54U A92U A118G, the self-cleavage came to 1.31.

Consider A36G U37C A63G, for which the self-cleavage is 0.93.

As for U37C U100C A118G, the self-cleavage was determined as 2.39.

In the case of U37C U97C U100C, the self-cleavage is 2.51.

Take U37C A52G G93U: the self-cleavage came out at 2.07.

As to A36C A60G A67G A69G, the self-cleavage was 1.16.

As to A36G A98U C113U, the self-cleavage was determined as 0.22.

Consider C35U A59G A86U, for which the self-cleavage is 0.78.

Turning to A36G A51G A118G A129G, the self-cleavage was 0.59.

Consider A36U A67G U103C, for which the self-cleavage stood at 0.92.

Consider A36G A63U G73U, for which the self-cleavage stood at 0.11.

In the case of U37C A51G A91G U103C, the self-cleavage is 0.71.

As to U37C A69G A111G, the self-cleavage turned out to be 0.04.

Turning to U37C A78U A126G, the self-cleavage is 0.46.

Turning to A36U U39C C46A, the self-cleavage was 1.48.

On to A36G U38C A52G, for which the self-cleavage is 1.45.

With U37C A63G U100C U102C, the self-cleavage was found to be 2.39.

As for A36C A52C A135G, the self-cleavage was 2.47.

U37C A95G A118G: the self-cleavage turned out to be 1.42.

For the variant C34U C35U A95G, the self-cleavage is 2.69.

Consider A36G U38C A68G, for which the self-cleavage stood at 2.12.

U37C A64G A94G: the self-cleavage is 0.66.

For the variant A36G G44A U49C A59G A66G A69G U87C, the self-cleavage amounted to 0.23.

Regarding U37C A114U A117G, the self-cleavage was 0.04.

With U37G A56G U124A, the self-cleavage turned out to be 0.65.

Consider U37C U49C U87C, for which the self-cleavage amounted to 2.08.

In the case of U37A A59G A95G, the self-cleavage was 2.76.

For the variant C34U A62C U72A A82U A134G, the self-cleavage is 0.

As for U37A U87C U120C U124C A125G, the self-cleavage is 0.85.

Consider A36U U37A A78U A82G A116G, for which the self-cleavage was determined as 0.05.

Turning to U37C A59U A60G U100C, the self-cleavage turned out to be 2.15.

Turning to U37C A60U U122A, the self-cleavage was 1.25.

As to C34U A56G U122C, the self-cleavage stood at 1.41.

Regarding A36G A52G A62G G106U, the self-cleavage was determined as 0.04.

Regarding A33U U87C A117G, the self-cleavage amounted to 1.73.

Turning to U37C U100C U108C A129G, the self-cleavage stood at 0.

Regarding U37C A89C A134G, the self-cleavage turned out to be 1.2.

Turning to U37C A51G A66G C128U, the self-cleavage was 0.65.

As for U37C U102A U130C, the self-cleavage is 1.23.

Consider A36U A63G U72A A91G U103C, for which the self-cleavage stood at 0.1.

On to A36U A64G U70C U108C A129G, for which the self-cleavage was 0.01.

As for A36G U38A A51G A54G A82G A86G, the self-cleavage stood at 0.21.

As for U37C U43C U131C, the self-cleavage stood at 1.88.

For U37C U38A A82G, the self-cleavage was 0.67.

For A36G U43A A126G U133C, the self-cleavage was determined as 0.57.

U37C U108C A125G: the self-cleavage stood at 0.01.

Take U37C U49C A90C: the self-cleavage stood at 1.6.

As to U37C U72C A117U, the self-cleavage amounted to 0.3.

In the case of A36G U43A A114U U131C, the self-cleavage was 0.09.

A36U A68G U122A: the self-cleavage worked out at 0.5.

As for A36G A47U A117G, the self-cleavage stood at 1.18.

For the variant U37C A56G U120C, the self-cleavage turned out to be 0.59.

Consider U37C U39C U122C A129G, for which the self-cleavage is 1.09.

For U37C U49C A78C A94G U100C, the self-cleavage stood at 0.42.

Regarding C34A A51G A64G A116G A118U, the self-cleavage came out at 0.28.

As to C34G A96G A125G, the self-cleavage turned out to be 0.57.

On to A36G A66G U103C, for which the self-cleavage was 0.85.

As to U37C U38C U43C A47G, the self-cleavage was found to be 0.66.

As to A36U U49C G58U, the self-cleavage was determined as 1.47.

Regarding A36U A47U U57C U100C, the self-cleavage came to 1.83.

Regarding A36G U43G A118U, the self-cleavage came to 1.16.

On to A36G A66U A110G, for which the self-cleavage turned out to be 0.11.

For U37C A62C A64G, the self-cleavage was 0.74.

In the case of U37C A52G A114G U127C, the self-cleavage came to 0.27.

Consider U37C A56C A78U A95G, for which the self-cleavage is 0.33.

On to A36U C61U A89G U102C, for which the self-cleavage is 2.6.

As for C34A U49C A89G A96U, the self-cleavage came to 0.83.

Turning to A36U U49C A60G U100C A117G, the self-cleavage came out at 2.64.

With A36G A66G U97C U103C, the self-cleavage stood at 0.76.

With U37C U49C A66U, the self-cleavage is 1.86.

Take U37A U43C A68G: the self-cleavage came to 2.58.

As for A36G U103C A125G, the self-cleavage stood at 0.3.

Consider A36G A91G A92G A110G, for which the self-cleavage was found to be 0.08.

Take U37C A56G A67G U70C U132C: the self-cleavage was 0.86.

Turning to A36C A62G A94G C109A, the self-cleavage is 0.35.

On to A36G A64C A67G A90G A98G, for which the self-cleavage came out at 0.82.

With A36U A55U A94G A117G, the self-cleavage was determined as 1.33.

As for U37C A51G A86G A92G, the self-cleavage was 0.96.

On to U37C A51U A55G A78U U102C A114G, for which the self-cleavage worked out at 0.06.

Turning to A33U U49C A60U U72C, the self-cleavage was 0.21.

For A36G U57A A63G U70C A90G, the self-cleavage was 1.17.

In the case of U37C U39C A95G G137A, the self-cleavage worked out at 1.96.

For U37A A63G A91U U130G, the self-cleavage worked out at 1.77.

Regarding C34G U87C A95G U127C, the self-cleavage came out at 0.69.

For A36G U43C U57A A110U, the self-cleavage was 0.58.

For the variant A36U A89U U130C, the self-cleavage was 1.08.

With A36G A94G A126G, the self-cleavage was 1.45.

Consider U37C A51U A90U, for which the self-cleavage turned out to be 0.98.

As for U37C A86C U120A U130C, the self-cleavage was 0.17.

On to U37C A62U A95G, for which the self-cleavage was 1.19.

With U37C A62U U72A A91G U97C, the self-cleavage worked out at 0.04.

As for U37C A68U U139C, the self-cleavage is 1.48.

Turning to U37C A90G G119A A126G, the self-cleavage came out at 0.58.

On to A36G A47C A118G, for which the self-cleavage was found to be 0.76.

For A33U U97C U139C, the self-cleavage worked out at 1.71.

On to A36U U57C A110G, for which the self-cleavage stood at 0.15.

Consider A36U A90C A91G A114U, for which the self-cleavage is 0.1.
